{
  "source": "the supplement of paper PMC8728848",
  "binders": {"B1": {"name": "Banana lectin (Musa acuminata) (protein)", "chain": "MNGAIKVGAWGGNGGSAFDMGPAYRIISVKIFSGDVVDGVDVTFTYYGKTETRHYGGSGGTPHEIVLQEGEYLVGMAGEVANYTGAVVLGKLGFSTNKKAYGPFGNTGGTPFSLPIAAGKISGFFGRGGKFLDAIGVYLEPLEHHHHHH"}},
  "test_in_all_cases": "glycan array binding signal (z-score within array); higher = stronger binding",
  "details_in_all_cases": "glycan notation: IUPAC condensed, linker removed; mutation: H84T",
  "key": {"[1]": {"molecular_target": "Neu5Gc(a2-8)Neu5Gc(a2-3)Gal(b1-4)GlcNAc(b1-3)Gal(b1-4)GlcNAc", "method_in_brief": "(§1)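 Arrays were curated from the Consortium for Functional Glycomics database, 3228 in total, and kept only where the protein sequence was available. Binding is expressed as a within-array Z-score. This score was averaged across arrays of the same protein sequence at different concentrations or buffers and across linkers, and negative values can be read as non-binding.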"}, "[2]": {"molecular_target": "Neu5Gc(a2-8)Neu5Gc(a2-6)Gal(b1-4)GlcNAc", "method_in_brief": "as §1"}, "[3]": {"molecular_target": "Neu5Gc(b2-6)Gal(b1-4)GlcNAc", "method_in_brief": "as §1"}},
  "note": "The other results are listed elsewhere or left out.",
  "data": [
    {"binder": "B1", "values": [
      {"measurement": "glycan array binding signal (z-score)", "setting": "[1]", "result": -0.195},
      {"measurement": "glycan array binding signal (z-score)", "setting": "[2]", "result": -0.137},
      {"measurement": "glycan array binding signal (z-score)", "setting": "[3]", "result": -0.168}
    ]}
  ]
}
